Experimental data published in the supplement of paper PMC10126150.
Sequences with one replicate were seen in a single cluster, so their values are uncertain.

Tested on: ATP
Assay: switch fluorescence ratio, 500 uM ATP over buffer (Cy3 cluster intensity, sum of 5 cycles each) (fold (ratio)); higher = stronger signal-on switching upon ATP binding; sequences stand for … in TCGTCGGCAGCGTCAGATGTGTATAAGAGACAGTTTTTTTTTTTTTTTTTTTTTTTTT…TC
Conditions: aptamer strand: ATP DNA aptamer (quencher-CACCTGGGGGAGTATTGCGGAGGAAGG + anchor), 100 nM annealed; ATP concentration: 500 uM; one replicate
How it was run: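 The fluorescence ratio divides summed target-cycle Cy3 intensity by summed buffer-cycle Cy3 intensity for each cluster and is averaged per switch-domain sequence. Cy3-labelled switching-strand clusters on a modified Illumina MiSeq flow-cell were annealed to 100 nM quencher-labelled ATP aptamer, then imaged in selection buffer and again after 15 min with 500 uM ATP at 22 °C. Five such cycles were run, with NaOH stripping and re-annealing between them, and clusters outside 100-1000 RFU were excluded.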
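Also: ATP exposure 15 min at 22 °C before imaging.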

Sequence	switch fluorescence ratio
GATAAAACAA	1.01
GGTCGGATAA	1.02
CCCTCGAAGC	1.2
CGAGGAAGTC	1.08
CAATAAGGCT	0.974
GCCATAAAAT	1
TTACCCATGA	0.967
ACCGTCCGAA	1.35
GGGCAGGATC	0.969
GATATCATGC	0.985
CAGGCCAGGT	1.21
TAGTGATAAT	0.989
GGTCTCAGCG	1.04
ACAGACGTTT	1.14
TGGGCTACCC	1.01
ACAGGGGAAC	1.01
GAGGTGCACA	1.04
CCGCGCCTTC	3.21
GGGAGATAAT	1.01
TGCGTAACGA	0.992
CCGTTAGAGC	1.15
CAAAGACTAA	0.965
GGGGAGTATG	0.98

Sequence	switch fluorescence ratio
CACCTTGAA	0.978
ATACCTACTA	1.23
CTCACTGCTA	1.33
AGGTCTAGTG	0.982
TTTGCCGAAT	1.05
CATAAGGATT	0.976
AGGCAACGGA	0.986
TAAATTGAGG	1.01
TAATCTCTCT	0.989
TGGTCGCAA	2.72
CTGAACTAGG	0.961
TTGGTATGA	1
TTCTTCTGAC	1.1
GCCCATCTGG	0.994
TCTAACGTTA	1.08
AGAAACCGC	1.06
TGGTCTTTCA	0.999
CGTAAGTGGG	1
GTTCAACCGA	1.11
TCTTTTAAAA	1.12
AATTTTGTTG	0.976
GCCGTGTGCA	0.988
TTTGGTCCAA	0.97

Sequence	switch fluorescence ratio
AGACCTGGGA	0.982
CAGACCGCAG	1.12
TTGACGAATG	1.08
TCCCCAGACA	1.07
GCAATCCTAG	1.11
TCCGAGAAGA	1.64
CCCTAGCCTG	1
CAGGTACGAA	1.05
GGTCCAAATC	1.02
CAACTAGGCT	0.977
AGTTCAATTA	0.976
ACAAGGGGGC	1.06
GAGTGACAGT	0.981
GGGATGTCAA	1.02
CAAGTTCAGG	1
AGTAGTAATC	1.22
CGTGATCGA	0.989
TAAACAGGGA	1.01
TTAGACGTCC	1.04
TTGTTCAAAC	0.991
GTATGGTCAG	0.964
TGTGTCTAGC	0.972
AAGATGCACC	1.03

Sequence	switch fluorescence ratio
AATCACTGCT	1.19
GAGTCACTAA	1.06
AATGTGAACA	1.07
TCAGTGCCTT	1.02
TTACCGCCAA	1.63
TAGTGCATA	0.999
GCTCTGGTGA	1.13
TAAATTGCCC	0.981
GTGATTAATG	1.01
CAGCGAATCT	1.05
TGGACACCC	0.989
TCTTCTTCGC	1.68
CAGTGGAGTC	0.999
CCTTTAGTAT	1.04
TATCGAGCCT	1
GTAAGAGTCG	1.03
AGCGGGCAGC	1.01
CTGCTATAGC	1.06
TTGTCTAACT	1.01
AAGAGTATTT	0.984
TTAGAACA	0.993
GATAAAGGAC	1.03
GGAGACAAAT	0.978

Sequence	switch fluorescence ratio
AAAAAGTCCG	0.998
ACTTAAATGA	0.997
GCCTACATGC	1.04
CAAGTAACT	1.01
TTCGCGATTT	1.08
GGCAGGAGTA	1.05
CTCAGGTTCA	1.01
ATTGCCATGA	0.959
CTTGCATGCA	0.997
GTCTATGACT	0.998
TCGCGCGGCA	1.01
ATCTTTCTTG	0.989
TCCAGGAGCA	1.11
AACTGGAAGA	0.958
AAAATGTTGG	1.01
TCGGGTGCGT	0.983
ATTCGAAAGG	0.972
GTGAGCCCTT	1.01
TTGTAGACAC	1.28
GCAGATCCTT	0.96
TATTCAAAGA	0.992
CCGCTGTTGT	1.42
GTGGGGCCCA	1.04

Sequence	switch fluorescence ratio
CTGCGATGGG	1.11
CACGGGGTCT	1.01
TTGGTCAAGT	1
CAAAGGCACT	0.998
CTCAGAAGTT	0.999
ATTATTTACC	1.01
CGGTACACTC	1.06
ACCAGGTTGG	1.04
TTTCTATCGG	0.992
GGGAAAGAAG	0.971
GGGTAGCTAC	0.998
TTAGAACAA	1.04
TCCACTATCT	0.994
AGGATACCCG	0.995
CAGTGCGGAC	1.03
AGATATCTGC	0.973
CTGTAAGCTT	1.08
TGTTAACGCT	1.02
ATGCGGAACT	0.978
AAACGAGCGT	0.997
CGGCGGAAAT	1.01
TCTAGGTGTG	1.02
AGCGCGGATG	0.979

Sequence	switch fluorescence ratio
CTGATCGTTA	1.08
TATAACATAG	1.02
AGTGGTCTAA	1
TCAGCGCTTG	1.01
ATTTGGCACG	0.997
TCCCGCGTCT	1.17
GACGACACCA	1.38
CGGTCGTCGC	0.979
CGTTTCCAAC	0.991
AACTTAGGTT	1.01
TTAGCTTACT	1.22
CAGAAGTGTT	1.03
ACGGATCGGT	0.975
ACCCCCGTGG	1.03
GTTCGACCAA	1.05
ATCATTACGT	0.973
AACGTTTAGC	1
TATAAAAGCC	1.02
ATCTACCCCG	1.19
